From the supplement of paper PMC10126150
Values marked as one replicate rest on one cluster of the flow cell; about a third of the high ones do not repeat.

System: ATP
Assay: switch fluorescence ratio, 500 uM ATP over buffer (Cy3 cluster intensity, sum of 5 cycles each) (fold (ratio)); higher = stronger signal-on switching upon ATP binding; sequences stand for … in TCGTCGGCAGCGTCAGATGTGTATAAGAGACAGTTTTTTTTTTTTTTTTTTTTTTTTT…TC
Settings: aptamer strand: ATP DNA aptamer (quencher-CACCTGGGGGAGTATTGCGGAGGAAGG + anchor), 100 nM annealed; ATP concentration: 500 uM; one replicate
Procedure, shortened: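 The fluorescence ratio divides summed target-cycle Cy3 intensity by summed buffer-cycle Cy3 intensity for each cluster and is averaged per switch-domain sequence. Cy3-labelled switching-strand clusters on a modified Illumina MiSeq flow-cell were annealed to 100 nM quencher-labelled ATP aptamer, then imaged in selection buffer and again after 15 min with 500 uM ATP at 22 °C. Five such cycles were run, with NaOH stripping and re-annealing between them, and clusters outside 100-1000 RFU were excluded.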
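Further: ATP exposure 15 min at 22 °C before imaging.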

| Sequence | switch fluorescence ratio |
| --- | --- |
| CAGTCCGTTG | 1.05 |
| GATGATCGAA | 1.04 |
| GCGATGGTTT | 0.979 |
| TGCAGCGACG | 0.965 |
| ATATTGAATT | 0.961 |
| GTTAGTAAAC | 1.04 |
| ACTGGTGTAT | 0.99 |
| TGGTGGTCTT | 0.976 |
| CCATTGGAAG | 0.97 |
| AGCTGCGATA | 1.14 |
| AAGCACCATT | 1.16 |
| GGTGGGCATA | 1 |
| AAGCTAGCC | 1.08 |
| CGGAAATATG | 1.01 |
| AAAATCAGTA | 0.974 |
| TCGTGCAGCA | 1.02 |
| GCCATTTTTA | 0.983 |
| CTTCTGTGTT | 1.01 |
| AGTGCGGCCA | 1.01 |
| GTAAAATTGA | 0.971 |
| GCTCTCACGC | 0.998 |
| GTTGTAGGAT | 1.04 |
| GGCCGTCTAG | 0.999 |
| CGCTTTTGTC | 1.05 |
| CGACGAAGGT | 1.13 |
| AGGCGCTACA | 1 |

| Sequence | switch fluorescence ratio |
| --- | --- |
| GACGGCTGAA | 1.01 |
| TAGAGTGAAA | 1.03 |
| GTTCCAAGCT | 1.06 |
| TGCTTACGGC | 1 |
| ATTAGAGGGT | 0.997 |
| ATATTACGTG | 1.05 |
| GGGCTGGGTG | 1.06 |
| AGAAACGTCA | 1.12 |
| GCTAGTCTTT | 0.976 |
| TGGGCCTGCG | 1.06 |
| GAATGGAGTT | 0.964 |
| AATAACGGT | 0.997 |
| TCTAAGCCTG | 1.03 |
| AGGTGTTCTT | 0.998 |
| AGTTCTGCTT | 1.06 |
| CATGGACAGA | 1.05 |
| CGACGCGAAA | 3.16 |
| GGATCTCTGG | 1.01 |
| CTAGTGCCTA | 0.959 |
| TGCGGGTACA | 1.04 |
| GGCTTCAAGA | 0.951 |
| CTCCACTAAT | 1.87 |
| TAGAGGATCG | 1.04 |
| CTATCGTGCT | 0.987 |
| ACCGGGTGAA | 1.18 |
| TGCGGAACAG | 0.981 |

| Sequence | switch fluorescence ratio |
| --- | --- |
| ATATACCGGG | 0.993 |
| CGTGAGGGAA | 0.973 |
| CCGGGGATGC | 1.41 |
| CATATAATGT | 1.02 |
| TGTTTCGTAT | 0.986 |
| TAAAAGAGA | 1.01 |
| TTCCCGACC | 1.28 |
| GAGTCTGTG | 0.981 |
| CATGACGGAG | 1.07 |
| TCAGGAGACC | 1.02 |
| ACAACAGTGC | 1.12 |
| CGGTCTAGGC | 0.997 |
| TCAGACAAGG | 1.03 |
| GCCGGCGTTC | 1.01 |
| CCATAGGGTG | 1.56 |
| TATCGAGGA | 0.983 |
| TCACTAGTAC | 1.17 |
| TTACGAGGGT | 0.941 |
| CGACAACGG | 0.997 |
| GGAGCCAGTC | 1.08 |
| AAGTAACTCA | 1.02 |
| TTGGGTGTAC | 1.04 |
| ATTAGCGACT | 1 |
| TTCTCCTGGA | 0.997 |
| TGCTGAATCG | 0.996 |
| TTTATGAACG | 0.974 |

| Sequence | switch fluorescence ratio |
| --- | --- |
| CTGCTATGAT | 0.992 |
| GGTGAGGTGG | 0.995 |
| AGTAGCTTAG | 0.984 |
| CACGGTTGGA | 1.01 |
| AGATTCTCAT | 0.942 |
| TCAGTTGCTT | 0.987 |
| AAATGCTCGA | 1.02 |
| ATGCCTAGAG | 0.988 |
| TTTATTGAGA | 1.02 |
| GACTTGGCTA | 1.04 |
| GGGGCACCAA | 1.02 |
| AACGATTTGA | 0.998 |
| TGGTTCCCGC | 1.1 |
| TGAGTGCGTG | 0.928 |
| TGAGCAGCAT | 0.997 |
| CAGCTAACTG | 0.971 |
| TCTGCCTTGA | 1.15 |
| CGGGAGGTGG | 0.975 |
| TGCGTTGTCT | 1.01 |
| ACAAACTACG | 1.13 |
| CTAGTCTTCA | 1.03 |
| ACACACCGGT | 1.24 |
| AAGGCTACTC | 1.16 |
| ATCGACTATG | 0.975 |
| ACGAGGCTGC | 2.94 |
| AGGCAATCGA | 1.35 |

| Sequence | switch fluorescence ratio |
| --- | --- |
| GGGTGCGGGG | 1.02 |
| CATTTAGCGT | 0.95 |
| CCTTCGAAGC | 2.4 |
| ACCAGTGCA | 1.07 |
| TAAACAAATT | 0.984 |
| TCTTAAAAAC | 1.03 |
| TCGGCTTCG | 1.12 |
| CTGCTATATG | 1.14 |
| CTTCGAAGCA | 1.37 |
| CAAGTTAGGA | 1.02 |
| GGAGCTAGGC | 1.68 |
| TGCGGGTGCG | 0.989 |
| ATGGATTATG | 0.989 |
| CAAGGCATAT | 1.14 |
| GCCCTAGAGT | 1.06 |
| TTGTCTTCA | 0.98 |
| GCCGTTGACG | 0.992 |
| ATTTCTCAGA | 1.02 |
| TTAAATTACT | 1.04 |
| CAAAGAAGGT | 0.981 |
| CGCACGAGGT | 1.05 |
| ACTATTTGGC | 0.958 |
| CACGAAAAAG | 1.11 |
| GATGCTGTT | 1 |
| ATCAGTCGAG | 0.97 |
| TCTTGCTTGG | 0.995 |

| Sequence | switch fluorescence ratio |
| --- | --- |
| CAACTTCTTG | 1.01 |
| GACCCCGGTA | 1.23 |
| TGTTTCAGC | 1.03 |
| TCGTTGAGAA | 1 |
| GCTTTCATTC | 1.03 |
| CTCTTGCTGA | 1.07 |
| GGCGGTCGTA | 0.999 |
| GCCTACTCCC | 1.05 |
| GCGTTTGTAC | 1.24 |
| TTAGTGAATG | 0.964 |
| AGTGCCATGA | 0.997 |
| CTGAAAACGA | 1.13 |
| AAAGTCTTGG | 0.97 |
| GTTATGAGAG | 0.974 |
| TGGCGTAGCA | 0.941 |
| CGCATATTGG | 1.31 |
| GCACCAGTG | 1.4 |
| CGACAAATGA | 1.14 |
| CGACCCAAA | 1.15 |
| TAATATGGAC | 1.02 |
| ATGCGTCAGC | 1.05 |
| ACCGCTCTGG | 1.02 |
| CTATGAGGGG | 0.969 |
| TGTACGAAAT | 1.06 |
| CGTGATCTAT | 0.986 |
| ATTAGGAC | 0.933 |

| Sequence | switch fluorescence ratio |
| --- | --- |
| AATACAGCGT | 0.975 |
| CCGTTGAGCA | 1.88 |
| TATTTTCGTC | 1.01 |
| GTATTACGAC | 1.09 |
| ATATTCTATC | 0.993 |
| ATTAACCGAT | 1.04 |
| CATATAAAAA | 0.979 |
| AAAAAAAAAC | 0.971 |
| CCCTCTTAAA | 1.1 |
| AGAGACACCA | 1.01 |
| TTGACATAAT | 0.976 |
| TAGACTAGGG | 1.01 |
| AGGACTCCTG | 1 |
| ACTCAGTTTG | 1.01 |
| AACAGGATAG | 1 |
| AGGTCAGAAG | 0.968 |
| GGGACTCATG | 1.06 |
| AAATGTCGT | 0.963 |
| ACGGTCTCCG | 0.978 |
| AGTTGGGT | 0.998 |
| TGTCAAGGGA | 1.02 |
| GGGCGGCGCA | 0.977 |
| AGTGGCCCAG | 0.971 |
| CCGCGGGCG | 1.22 |
| AGCCGATTGG | 1.01 |
| CTGTGGTGGA | 1.03 |

| Sequence | switch fluorescence ratio |
| --- | --- |
| ATGGAGGGAG | 0.969 |
| TCTTAGTCGG | 1 |
| TTGGTTGTGC | 1.02 |
| GTCAGCCCTT | 0.965 |
| TTCAGTTGTA | 1.01 |
| CAGAGGCTAT | 1.33 |
| TCCGCCATT | 3.2 |
| TTTGGGCCAG | 1.03 |
| GACCGTTTGC | 1.08 |
| ACACGCCTTG | 1.03 |
| GAGAGTTAGA | 1.01 |
| TGCATGCGTT | 1.03 |
| GGCATGTGGC | 1.03 |
| AGCTTCCCGG | 1.44 |
| ACCTCGTAAG | 1.02 |
| CTGGGGCAC | 0.983 |
| CCCCAAACAT | 1.01 |
| ACGGCAAGAA | 1.62 |
| GTTGCGGTTA | 0.983 |
